Laboratory results from paper PMC9911399, “Two distinct binding modes provide the RNA-binding protein RbFox with extraordinary sequence specificity”.
Residue numbers refer to the chain shown, from its start. The list shows a part of the results.

B1: UUCUGGA (DNA:RNA)
RNA: GGGAGACCGGAAUUCAGAUUGUCCUUCUGGAUUAAAUCCCGUCGUAGCCACCA
DNA 1: CAATCTGAATTCCGGTCTCCC
DNA 2: TGGTGGCTACGACGGGATT
B2: AGACUCA (DNA:RNA)
RNA: B1 RNA with U25A, U26G, C27A, U28C, G29U, G30C
DNA 1: CAATCTGAATTCCGGTCTCCC
DNA 2: TGGTGGCTACGACGGGATT
B3: CUGCUAC (DNA:RNA)
RNA: B1 RNA with U25C, C27G, U28C, G29U, G30A, A31C
DNA 1: CAATCTGAATTCCGGTCTCCC
DNA 2: TGGTGGCTACGACGGGATT
B4: CUGGUCC (DNA:RNA)
RNA: B1 RNA with U25C, C27G, U28G, G29U, G30C, A31C
DNA 1: CAATCTGAATTCCGGTCTCCC
DNA 2: TGGTGGCTACGACGGGATT
B5: GGAGAAG (DNA:RNA)
RNA: GGGAGACCGGAAUUCAGAUUGUCCGGAGAAGUUAAAUCCCGUCGUAGCCACCA
DNA 1: CAATCTGAATTCCGGTCTCCC
DNA 2: TGGTGGCTACGACGGGATT
B6: CAGCGCU (DNA:RNA)
RNA: B1 RNA with U25C, U26A, C27G, U28C, G30C, A31U
DNA 1: CAATCTGAATTCCGGTCTCCC
DNA 2: TGGTGGCTACGACGGGATT
B7: CGGAGGC (DNA:RNA)
RNA: B1 RNA with U25C, U26G, C27G, U28A, A31C
DNA 1: CAATCTGAATTCCGGTCTCCC
DNA 2: TGGTGGCTACGACGGGATT
B8: GAACGAG (DNA:RNA)
RNA: B5 RNA with G26A, G28C, A29G
DNA 1: CAATCTGAATTCCGGTCTCCC
DNA 2: TGGTGGCTACGACGGGATT
B9: CGCUCAA (DNA:RNA)
RNA: B1 RNA with U25C, U26G, G29C, G30A
DNA 1: CAATCTGAATTCCGGTCTCCC
DNA 2: TGGTGGCTACGACGGGATT
B10: GGAACGC (DNA:RNA)
RNA: B5 RNA with G28A, A29C, A30G, G31C
DNA 1: CAATCTGAATTCCGGTCTCCC
DNA 2: TGGTGGCTACGACGGGATT
B11: UGCCCCG (DNA:RNA)
RNA: B5 RNA with G25U, A27C, G28C, A29C, A30C
DNA 1: CAATCTGAATTCCGGTCTCCC
DNA 2: TGGTGGCTACGACGGGATT
B12: UGGGGCG (DNA:RNA)
RNA: B5 RNA with G25U, A27G, A29G, A30C
DNA 1: CAATCTGAATTCCGGTCTCCC
DNA 2: TGGTGGCTACGACGGGATT
B13: GCGAAGA (DNA:RNA)
RNA: B5 RNA with G26C, A27G, G28A, A30G, G31A
DNA 1: CAATCTGAATTCCGGTCTCCC
DNA 2: TGGTGGCTACGACGGGATT
B14: ACUAAUG (DNA:RNA)
RNA: B5 RNA with G25A, G26C, A27U, G28A, A30U
DNA 1: CAATCTGAATTCCGGTCTCCC
DNA 2: TGGTGGCTACGACGGGATT
B15: UGGCGGU (DNA:RNA)
RNA: B1 RNA with U26G, C27G, U28C, A31U
DNA 1: CAATCTGAATTCCGGTCTCCC
DNA 2: TGGTGGCTACGACGGGATT
B16: CAACUGC (DNA:RNA)
RNA: B5 RNA with G25C, G26A, G28C, A29U, A30G, G31C
DNA 1: CAATCTGAATTCCGGTCTCCC
DNA 2: TGGTGGCTACGACGGGATT
B17: UGUCGCA (DNA:RNA)
RNA: B1 RNA with U26G, C27U, U28C, G30C
DNA 1: CAATCTGAATTCCGGTCTCCC
DNA 2: TGGTGGCTACGACGGGATT
B18: AGAGGAC (DNA:RNA)
RNA: B5 RNA with G25A, A29G, G31C
DNA 1: CAATCTGAATTCCGGTCTCCC
DNA 2: TGGTGGCTACGACGGGATT
B19: AACGUUG (DNA:RNA)
RNA: B5 RNA with G25A, G26A, A27C, A29U, A30U
DNA 1: CAATCTGAATTCCGGTCTCCC
DNA 2: TGGTGGCTACGACGGGATT
B20: UACAGCA (DNA:RNA)
RNA: B1 RNA with U26A, U28A, G30C
DNA 1: CAATCTGAATTCCGGTCTCCC
DNA 2: TGGTGGCTACGACGGGATT
B21: UUUAAUU (DNA:RNA)
RNA: B1 RNA with C27U, U28A, G29A, G30U, A31U
DNA 1: CAATCTGAATTCCGGTCTCCC
DNA 2: TGGTGGCTACGACGGGATT
B22: AUGUGUG (DNA:RNA)
RNA: B1 RNA with U25A, C27G, G30U, A31G
DNA 1: CAATCTGAATTCCGGTCTCCC
DNA 2: TGGTGGCTACGACGGGATT
B23: UGGACCC (DNA:RNA)
RNA: B5 RNA with G25U, A27G, G28A, A29C, A30C, G31C
DNA 1: CAATCTGAATTCCGGTCTCCC
DNA 2: TGGTGGCTACGACGGGATT
B24: AAGGCUU (DNA:RNA)
RNA: B5 RNA with G25A, G26A, A27G, A29C, A30U, G31U
DNA 1: CAATCTGAATTCCGGTCTCCC
DNA 2: TGGTGGCTACGACGGGATT
B25: GUAGCGU (DNA:RNA)
RNA: B5 RNA with G26U, A29C, A30G, G31U
DNA 1: CAATCTGAATTCCGGTCTCCC
DNA 2: TGGTGGCTACGACGGGATT
B26: GAGUUAC (DNA:RNA)
RNA: B5 RNA with G26A, A27G, G28U, A29U, G31C
DNA 1: CAATCTGAATTCCGGTCTCCC
DNA 2: TGGTGGCTACGACGGGATT
B27: AAUCGCA (DNA:RNA)
RNA: B1 RNA with U25A, U26A, C27U, U28C, G30C
DNA 1: CAATCTGAATTCCGGTCTCCC
DNA 2: TGGTGGCTACGACGGGATT
B28: CCUCCAA (DNA:RNA)
RNA: B5 RNA with G25C, G26C, A27U, G28C, A29C, G31A
DNA 1: CAATCTGAATTCCGGTCTCCC
DNA 2: TGGTGGCTACGACGGGATT
B29: CGAGAAG (DNA:RNA)
RNA: B5 RNA with G25C
DNA 1: CAATCTGAATTCCGGTCTCCC
DNA 2: TGGTGGCTACGACGGGATT
B30: GACGGUU (DNA:RNA)
RNA: B5 RNA with G26A, A27C, A29G, A30U, G31U
DNA 1: CAATCTGAATTCCGGTCTCCC
DNA 2: TGGTGGCTACGACGGGATT
B31: UUACAAA (DNA:RNA)
RNA: B5 RNA with G25U, G26U, G28C, G31A
DNA 1: CAATCTGAATTCCGGTCTCCC
DNA 2: TGGTGGCTACGACGGGATT

target: T1, RBFOX1 RRM (Homo sapiens, UniProt Q9NWB1 109-208); assay: EMSA; HiTS-Eq, 1 nM pool, 10 min; buffer printed only for the single-RNA assays: 10 mM Tris pH 7.5, 150 mM NaCl, 3.4 mM EDTA, 0.001% NP-40, 30 C; details: tags: His6 N-terminal (pET28a); label: 5' 32P
T1 sequence: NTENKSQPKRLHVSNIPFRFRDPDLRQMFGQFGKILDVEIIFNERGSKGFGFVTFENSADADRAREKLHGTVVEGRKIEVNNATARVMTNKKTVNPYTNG
In short: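 Purified wild-type or mutant RbFox RRM at increasing concentrations was equilibrated with 1 nM of 5′-radiolabelled RNA carrying 7 randomized nucleotides for 10 min in 50 µL. Unbound RNA was separated by 8% native PAGE and sequenced. Relative association constants came from read-count changes of each RNA species compared with the control reaction, normalised to the cognate motif.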

Which binding signal does the source give for B1 here?
Its binding signal is 0.00363 KA relative to UGCAUGU.

With B2 as the binder, how does the binding signal read?
The binding signal was 0.00257 KA relative to UGCAUGU.

How did the binding signal turn out when B3 was run?
Its binding signal is 0.0139 KA relative to UGCAUGU.

Which binding signal does the source give for B4 here?
The binding signal was 0.0227 KA relative to UGCAUGU.

How did the binding signal turn out when B5 was run?
Its binding signal is 0.0214 KA relative to UGCAUGU.

How did the binding signal turn out when B6 was run?
The binding signal was 0.00782 KA relative to UGCAUGU.

For B7, which binding signal is on record?
The binding signal was 0.023 KA relative to UGCAUGU.

For B8, which binding signal is on record?
Its binding signal is 0.0182 KA relative to UGCAUGU.

Which binding signal does the source give for B9 here?
The binding signal was 0.00447 KA relative to UGCAUGU.

How did the binding signal turn out when B10 was run?
The binding signal was 0.0165 KA relative to UGCAUGU.

B11 was tested. Which binding signal did it give?
The binding signal was 0.0106 KA relative to UGCAUGU.

With B12 as the binder, how does the binding signal read?
Its binding signal is 0.0294 KA relative to UGCAUGU.

With B13 as the binder, how does the binding signal read?
Its binding signal is 0.0177 KA relative to UGCAUGU.

How did the binding signal turn out when B14 was run?
The binding signal was 0.00752 KA relative to UGCAUGU.

With B15 as the binder, how does the binding signal read?
The binding signal was 0.0227 KA relative to UGCAUGU.

Which binding signal does the source give for B16 here?
Its binding signal is 0.00601 KA relative to UGCAUGU.

For B17, which binding signal is on record?
The binding signal was 0.0244 KA relative to UGCAUGU.

B18 was tested. Which binding signal did it give?
The binding signal was 0.00634 KA relative to UGCAUGU.

Which binding signal does the source give for B19 here?
The binding signal was 0.0157 KA relative to UGCAUGU.

For B20, which binding signal is on record?
The binding signal was 0.0102 KA relative to UGCAUGU.

How did the binding signal turn out when B21 was run?
The binding signal was 0.00658 KA relative to UGCAUGU.

How did the binding signal turn out when B22 was run?
Its binding signal is 0.0208 KA relative to UGCAUGU.

How did the binding signal turn out when B23 was run?
Its binding signal is 0.022 KA relative to UGCAUGU.

Which binding signal does the source give for B24 here?
The binding signal was 0.00698 KA relative to UGCAUGU.

For B25, which binding signal is on record?
The binding signal was 0.0174 KA relative to UGCAUGU.

B26 was tested. Which binding signal did it give?
The binding signal was 0.0121 KA relative to UGCAUGU.

How did the binding signal turn out when B27 was run?
Its binding signal is 0.00618 KA relative to UGCAUGU.

How did the binding signal turn out when B28 was run?
The binding signal was 0.00154 KA relative to UGCAUGU.

With B29 as the binder, how does the binding signal read?
Its binding signal is 0.0122 KA relative to UGCAUGU.

B30 was tested. Which binding signal did it give?
Its binding signal is 0.0211 KA relative to UGCAUGU.

With B31 as the binder, how does the binding signal read?
The binding signal was 0.000873 KA relative to UGCAUGU.
